Data taken from the supplement of paper PMC4967469.

Assays:
Assay in all cases: Viability of human cancer cell lines after 72 h of drug (GDSC screen)
[1] = compound: COc1cc(N2CCC(N3CCN(C)CC3)CC2)ccc1Nc1ncc(Cl)c(Nc2ccccc2S(=O)(=O)C(C)C)n1 [NVP-TAE684]; conditions: top dose 2 µM
Protocol: (§1)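 Human cancer cell lines in 384-well plates, medium with 10% serum, drug for 72 h over a 256-fold dose range (nine 2-fold or five 4-fold steps up to the top dose). Adherent lines were fixed and stained with the nucleic acid dye Syto60, suspension lines read with resazurin; signal relative to control wells, capped at 0 and 100%. One two-parameter sigmoid per drug and line, fitted in a mixed model over all curves with the slope shared within a line.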

[2] = compound: Cc1ccc(C(=O)N(CCCN)[C@@H](c2nc3cc(Cl)ccc3c(=O)n2Cc2ccccc2)C(C)C)cc1 [SB-715992]; conditions: top dose 0.128 µM; top dose inferred
Protocol: as §1

[3] = compound: CC1(C)CNc2cc(NC(=O)c3cccnc3NCc3ccncc3)ccc21 [AMG-706]; conditions: top dose 2 µM; top dose inferred
Protocol: as §1

[4] = compound: CCOc1nc(NC(=O)Cc2cc(OC)ccc2OC)cc(N)c1C#N [JNK Inhibitor VIII]; conditions: top dose 10 µM; top dose inferred
Protocol: as §1

[5] = compound: CC1=C2C[C@H]3[C@@H](CC=C4C[C@@H](O)CC[C@@]43C)[C@@H]2CC[C@]12O[C@@H]1C[C@H](C)CN[C@H]1[C@H]2C [Cyclopamine]; conditions: top dose 16 µM; top dose inferred
Protocol: as §1

[6] = compound: COC(=O)[C@H](CCSC)NC(=O)c1ccc(NC[C@@H](N)CS)cc1-c1ccccc1 [FTI-277]; conditions: top dose 1.024 µM; top dose inferred
Protocol: as §1

[7] = compound: C[C@]1(O)C[C@@H](c2nc(-c3ccc4ccc(-c5ccccc5)nc4c3)c3c(N)nccn32)C1 [OSI-906]; conditions: top dose 2.56 µM; top dose inferred
Protocol: as §1

[8] = compound: COCC[n+]1c2c(n(Cc3cnccn3)c1C)C(=O)c1ccccc1C2=O [YM155]; conditions: top dose 5.12 µM
Protocol: as §1

[9] = compound: CN1CCN(c2ccc([N+](=O)[O-])c3no[n+]([O-])c23)CC1 [NSC-207895]; conditions: top dose 20 µM; top dose inferred
Protocol: as §1

[10] = compound: OCCCNc1cc(-c2ccnc(Nc3cccc(Cl)c3)n2)ccn1 [CGP-60474]; conditions: top dose 0.256 µM; top dose inferred
Protocol: as §1

[11] = compound: O=C(/C=C/c1cccc(S(=O)(=O)Nc2ccccc2)c1)NO [Belinostat]; conditions: top dose 20 µM; top dose inferred
Protocol: as §1

[12] = compound: c1ccc2c(CCNc3ccc(Nc4ccncc4)cc3)c[nH]c2c1 [JNJ-26854165]; conditions: top dose 10 µM
Protocol: as §1

[13] = compound: Cc1sc2c(c1C)C(c1ccc(Cl)cc1)=N[C@@H](CC(=O)OC(C)(C)C)c1nnc(C)n1-2 [JQ1]
Protocol: as §1

[14] = compound: CC(=O)O[C@@]12CO[C@@H]1C[C@H](O)[C@@]1(C)C(=O)[C@H](O)C3=C(C)[C@@H](OC(=O)[C@H](O)[C@@H](NC(=O)OC(C)(C)C)c4ccccc4)C[C@@](O)([C@@H](OC(=O)c4ccccc4)[C@H]21)C3(C)C [Docetaxel]; conditions: top dose 0.0125 µM
Protocol: as §1

[15] = top dose 1 µM, screen: GDSC drug entry 1218, top dose inferred
[16] = top dose 2.56 µM, screen: GDSC drug entry 163

Cell Line	AUC [1]	IC50 [1] [nM]	AUC [2]	IC50 [2] [nM]	AUC [3]	IC50 [3] [nM]	AUC [4]	IC50 [4] [nM]	AUC [5]	IC50 [5] [nM]	AUC [6]	IC50 [6] [nM]	AUC [7]	IC50 [7] [nM]	AUC [8]	IC50 [8] [nM]	AUC [9]	IC50 [9] [nM]	AUC [10]	IC50 [10] [nM]	AUC [11]	IC50 [11] [nM]	AUC [12]	IC50 [12] [nM]	AUC [13, 15]	IC50 [13, 15] [nM]	AUC [13, 16]	IC50 [13, 16] [nM]	AUC [14]	IC50 [14] [nM]
EW-1 (Ewing sarcoma, semi-adherent)	0.496	122	0.533	9.78	0.936	> 2000	0.926	> 10000	0.988	> 16000	0.98	> 1020	0.417	96.7	0.021	< 20	0.964	> 20000	0.684	49.8	0.236	234	0.882	9070	0.988	> 1000	0.851	1720		
EW-16 (Ewing sarcoma, adherent)	0.496	122	0.693	28.7	0.858	1770	0.951	> 10000	0.985	> 16000	0.966	> 1020	0.531	195	0.038	< 20	0.985	> 20000	0.596	29.7	0.293	315	0.812	5630	0.958	> 1000	0.805	1370		
IST-MES1 (mesothelioma, adherent)	0.804	1010	0.977	> 128					0.882	> 16000	0.985	> 1020	0.932	> 2560	0.376	145	0.988	> 20000	0.781	107	0.495	1210	0.875	> 10000	0.986	> 1000	0.819	1470		
K5 (thyroid, adherent)	0.78	787	0.814	66	0.982	> 2000	0.985	> 10000	0.988	> 16000	0.945	> 1020	0.955	> 2560	0.309	95.6	0.986	> 20000	0.609	31.4	0.512	1350	0.672	1840	0.986	> 1000	0.842	1680		
KARPAS-620 (haematopoietic neoplasm, suspension)	0.489	117	0.871	91.9	0.991	> 2000	0.991	> 10000			0.99	> 1020	0.329	57.9	0.03	< 20	0.922	> 20000	0.684	47.9	0.226	232	0.921	> 10000	0.8	405	0.543	205	0.911	> 12.5
KG-1 (acute myeloid leukaemia, suspension)	0.71	455	0.937	> 128	0.989	> 2000	0.99	> 10000	0.983	> 16000	0.99	> 1020	0.99	> 2560	0.65	793	0.893	19400	0.924	> 256	0.285	333	0.988	> 10000						
KNS-42 (glioma, adherent)	0.95	> 2000	0.873	> 128	0.98	> 2000	0.984	> 10000	0.97	> 16000	0.984	> 1020	0.969	> 2560	0.076	< 20	0.893	> 20000	0.811	170	0.568	1990	0.94	> 10000	0.982	> 1000	0.852	> 2560		
LB831-BLC (bladder, adherent)	0.728	563	0.918	> 128	0.987	> 2000	0.978	> 10000	0.984	> 16000	0.928	> 1020	0.986	> 2560	0.125	< 20	0.939	> 20000	0.633	37.4	0.387	609	0.87	9560	0.982	> 1000	0.721	685		
LB996-RCC (kidney, adherent)	0.755	781	0.983	> 128	0.968	> 2000	0.962	> 10000	0.964	> 16000	0.968	> 1020	0.933	> 2560	0.709	1390	0.981	> 20000	0.64	41.6	0.712	5540	0.795	5520	0.981	> 1000	0.779	1230		

By IC50 is meant the dose at which the fit gives 50% viability; fits outside the tested doses are given as limits. The AUC spans the tested range (256-fold, ending at the top dose) of the same fit; values near 1 show little effect. For some of these results: The top dose, if marked as inferred, was calculated from the reported fits. For some of these results: An entry number marks a drug with two screens in the source, which often give different values.
